# The campaign covered roughly 310,000 compounds. About 2,200 (0.71%) showed an effect of 50% or more. The effect is printed as a negative number. This is one part of the list.
# Biological target: human ether-à-go-go-related gene (hERG) potassium channel (human, UniProt Q12809)
# Assay: primary screen, population patch clamp on CHO cells stably expressing hERG
# Chain of human ether-à-go-go-related gene (hERG) potassium channel (Q12809 whole entry, looked up): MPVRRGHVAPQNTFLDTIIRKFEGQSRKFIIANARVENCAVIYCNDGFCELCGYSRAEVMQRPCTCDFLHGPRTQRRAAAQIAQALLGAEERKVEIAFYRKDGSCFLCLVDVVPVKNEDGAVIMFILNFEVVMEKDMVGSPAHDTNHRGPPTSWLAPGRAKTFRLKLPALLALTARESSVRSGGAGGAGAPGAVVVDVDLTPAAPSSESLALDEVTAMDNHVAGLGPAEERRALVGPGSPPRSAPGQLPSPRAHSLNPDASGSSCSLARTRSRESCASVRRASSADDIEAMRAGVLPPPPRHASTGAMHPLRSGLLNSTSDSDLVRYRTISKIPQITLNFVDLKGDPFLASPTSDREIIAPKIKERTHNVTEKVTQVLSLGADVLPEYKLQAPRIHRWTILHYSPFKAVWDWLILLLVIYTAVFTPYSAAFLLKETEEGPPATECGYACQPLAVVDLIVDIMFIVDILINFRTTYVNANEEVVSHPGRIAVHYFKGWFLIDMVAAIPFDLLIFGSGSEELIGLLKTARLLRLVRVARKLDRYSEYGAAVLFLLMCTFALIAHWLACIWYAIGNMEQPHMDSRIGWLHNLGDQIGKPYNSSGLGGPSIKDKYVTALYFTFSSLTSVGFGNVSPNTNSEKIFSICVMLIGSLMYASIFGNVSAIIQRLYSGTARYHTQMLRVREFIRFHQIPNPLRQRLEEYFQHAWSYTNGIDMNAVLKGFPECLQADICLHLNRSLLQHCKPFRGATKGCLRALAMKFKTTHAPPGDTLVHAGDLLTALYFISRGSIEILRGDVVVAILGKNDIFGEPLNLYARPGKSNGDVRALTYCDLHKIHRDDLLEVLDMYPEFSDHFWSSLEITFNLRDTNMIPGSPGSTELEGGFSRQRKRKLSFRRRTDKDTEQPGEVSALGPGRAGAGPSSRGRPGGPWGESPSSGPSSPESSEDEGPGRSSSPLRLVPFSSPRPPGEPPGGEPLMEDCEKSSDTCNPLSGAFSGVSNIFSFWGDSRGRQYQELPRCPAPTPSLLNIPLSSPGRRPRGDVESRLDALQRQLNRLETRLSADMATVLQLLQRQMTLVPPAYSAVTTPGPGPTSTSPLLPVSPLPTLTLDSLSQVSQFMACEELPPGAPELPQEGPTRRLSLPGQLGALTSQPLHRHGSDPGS
row,SMILES,"hERG current change (%, negative = inhibition) at 1uM [%]"
1,Cc1cc(/C=C2\C(=O)NN(c3ccccc3)C2=O)c(C)n1-c1ccccc1O,13
2,COc1ccc(O)c(C(=O)CC(=O)c2ccc(F)cc2)c1,1.21
3,CCCCOC(=O)c1ccc(NC(=O)c2ocnc2C)cc1,-2.1
4,COc1cc(/C=N/Nc2cccc(C)c2)ccc1OC(=O)c1ccco1,11.2
5,Cc1cc(-c2ccc(C)c(S(=O)(=O)NCCc3ccc(S(N)(=O)=O)cc3)c2)on1,23.9
6,Cc1ccc(N2C(=O)N(CC(=O)NCc3ccccc3Cl)C(=O)C2C)cc1 (centres unmarked),2.7
7,CN(Cc1ccon1)Cc1cn(C)nc1-c1cccc(Cl)c1,11.1
8,c1ccc(-c2nnc(N3CCOCC3)c3ccccc23)cc1,11
9,O=C(COc1ccc2ccc(=O)oc2c1)Nc1ccc(CN2CCOCC2)cc1,16.9
10,CN(Cc1ccccc1)Cc1nc2c(c(=O)n(C)c(=O)n2C)n1Cc1ccc(Cl)cc1,5.2
11,O=C(O)c1ccccc1C(=O)NCCc1c(C(=O)O)[nH]c2ccc(Cl)cc12,7.89
12,C=CCNc1nc(Nc2ccc(OC)cc2)nc(OC)n1,1.52
13,C=CCSc1nnc(NC(=O)c2cccc(S(=O)(=O)N3CCOCC3)c2)s1,-4.7
14,CC(NC(=O)CSc1n[nH]c(=O)n1C1CC1)C12CC3CC(CC(C3)C1)C2 (centres unmarked),-0.488
15,COc1ccc(N2CCN(c3cc(C)c4ccc(C)cc4n3)CC2)cc1,3.1
16,C[C@@H](CN1C2=NC[C@H](Cc3ccccc3)N2C[C@H]1Cc1ccc(O)cc1)NC(=O)CCC1CCCCC1,-9.4
17,Cc1ccc(-c2cc(=O)c3ccc(Cl)cc3[nH]2)cc1,9.03
18,COc1ccc(CNC(=O)C2CCN(S(=O)(=O)c3ccc4c(c3)CC(C)N4C(=O)C3CC3)CC2)cc1 (centres unmarked),11.3
19,CCOc1ccc(/C(C)=N/NC(=O)c2nnn(-c3nonc3N)c2-c2cccs2)cc1,13.7
20,Cc1cccc([C@@H]2[C@@H]3C(=O)N(Cc4ccccc4)C(=O)[C@@H]3[C@]3(Cc4ccc(Cl)cc4)C(=O)N(c4cccc(Cl)c4)C(=O)N23)c1,2.98
21,COc1ccc(NC(=O)/C(=C/c2ccc(OC(C)=O)c(OC)c2)NC(C)=O)cc1,9.71
22,Cc1oc2c(CN3CCCCC3)c(O)ccc2c(=O)c1-c1ccc(Cl)cc1,-7.86

row,SMILES,"hERG current change (%, negative = inhibition) at 1uM [%]"
1,Cc1noc(C)c1COc1ccccc1C(=O)N1CCN(S(=O)(=O)c2ccccc2C(F)(F)F)CC1,6.15
2,CCOc1nc(NC2CCCCC2)nc(NC(C)(C)C)n1,2.49
3,CC[C@H](C)[C@@H](C(=O)NCCCCCCCCCCC(=O)N1CCN(C(=O)OC(C)(C)C)CC1)n1cc(CCCCCNC(=O)OC(C)(C)C)nn1,8.67
4,NCC(=O)c1cccc2ccc[n+]([O-])c12,17.3
5,O=[N+]([O-])c1ccc(-c2nc(NCc3ccccc3)c3ccccc3n2)cc1,8.85
6,COc1ccc(-c2csc(Cc3nnc(N4CCOCC4)n3-c3ccccc3)n2)cc1OC,-6.32
7,CCOC(=O)C1NN=C(C(=O)c2ccccc2)C1c1ccccc1 (centres unmarked),5.62
8,Cl.NCCCCCc1nnc(SC/C=C/c2ccccc2)o1,-5.01
9,COC1CCN(Cc2cn(Cc3ccccc3)nc2-c2cc3ccccc3o2)CC1,1.32
10,O=C(OCC(=O)N(C1CCCCC1)C1CCCCC1)c1cnccn1,6.31
11,CC(=O)c1cnc2scnn2c1=O,15.6
12,O=C(Nc1ccccc1)N1CC=C(c2ccccc2)CC1,2.74
13,COc1cc2c(cc1OC)C(c1ccc(N(C)C)cc1)CC(=O)N2 (centres unmarked),5.18
14,CCN(CC)S(=O)(=O)c1ccc(NC(=O)CCN2C(=O)C3CC=CCC3C2=O)cc1 (centres unmarked),8.12
15,S=c1[nH]cc(-c2ccccc2)n1-c1ccccc1Cl,15
16,O=C(O)c1ccc2c(=O)n(-c3ccccc3F)c(=S)[nH]c2c1,4.52
17,O=C(CCc1nc2ccccc2c(=O)[nH]1)NCCN1C(=O)S/C(=C\c2ccccc2Cl)C1=O,2.28
18,Brc1csc(C=Nc2ccc3c(c2)OCCOCCOCCOCCO3)c1,-78.1
19,CCCCCCCc1nc2nc(C)c(Br)c(=O)n2[nH]1,16.2
20,CCCCCCn1c(=O)c(C(=O)Nc2c(C)n(C)n(-c3ccccc3)c2=O)c(O)c2ccccc21,12.9
21,CC(C)(C)NC(=O)C(=O)NCc1ccncc1,10.4
22,Cc1ccc2oc(NC(=O)N3CCOCC3)cc(=O)c2c1,12.6

row,SMILES,"hERG current change (%, negative = inhibition) at 1uM [%]"
1,Cc1nonc1NC(=O)CSc1nnnn1-c1ccccc1,18.5
2,O=C(CN(Cc1ccc(Br)cc1)S(=O)(=O)c1ccccc1)NCC1CCCO1 (centres unmarked),11.8
3,CCCCN(C(=O)c1ccc(S(=O)(=O)N(CC)CC)cc1)c1c(N)n(CCC)c(=O)[nH]c1=O,16.5
4,C/C(NC(=O)c1ccccc1F)=C1\C(=O)C[C@@H]2[C@H]1C2(C)C,-3.44
5,Cc1cccn2c(CN3CCCC(c4ccccc4)C3)c(C(=O)N3CCOCC3)nc12 (centres unmarked),-53.3
6,COc1ccc(NC(=O)NNC(=O)C(C)Oc2ccc3ccccc3c2)cc1OC (centres unmarked),17.9
7,O=c1nc(N2CCOCC2)ccn1Cc1ccc(Br)cc1,11.3
8,CCCC1=C(C(=O)OCC)C(c2ccccc2OCC)NC(=O)N1C (centres unmarked),2.52
9,CCN(CC)C1CCN(C(=O)c2ccc(OC3CCN(CCc4ccccc4)CC3)cc2)C1 (centres unmarked),16
10,Cc1nnc(Sc2cc(C(=O)NC3CC3)c3ccccc3n2)s1,3.64
11,CC(C)(C)c1nc2ccccc2c2nnc(SCC(=O)Nc3nccs3)n12,17.3
12,Cc1cc(C(=O)N/N=C/c2ccccc2Br)no1,7.3
13,CC12CN3C(O)C(C)(C1)CC(C)(C2)C3O (centres unmarked),4.88
14,CC(=C/C(=O)O)/C=C/c1ccc(Cl)o1,5.53
15,CCOC(=O)CSc1snnc1C,19.2
16,CCCCS(=O)CC(COc1ccc(Cl)cc1)OC(=O)c1ccccc1 (centres unmarked),-1.33
17,O=C(COC(=O)c1ccccc1C(=O)N1CCN(c2ccc(F)cc2)CC1)NCc1ccccc1,-32.7
18,CCOC(=O)c1cnn(-c2ccccc2)c1NC(=O)c1ccccc1C,6.89
19,CC(=O)c1ccc(NC(=O)Cc2ccsc2)cc1,14.1
20,C=CCNC(=O)c1cc(-c2cccnc2)nc2ccccc12,3.45
21,O=C1NCCN(Cc2cccc(Oc3ccccc3)c2)C1CC(=O)N1CCCO1 (centres unmarked),12.1
22,COc1ccc(OC)c(NC(=O)C2CC(=O)N(c3ccccc3)C2)c1 (centres unmarked),7.94

row,SMILES,"hERG current change (%, negative = inhibition) at 1uM [%]"
1,COc1ccc(CCNC(=O)Cn2c(=O)n(-c3ccc(F)cc3F)c(=O)c3sccc32)cc1OC,6.36
2,Cc1cccc(NC(=O)Cn2cnc3ccc(S(=O)(=O)N4CCC(C)CC4)cc3c2=O)n1,5
3,Cc1cccc(OCC(=O)N2CCC(N3CCOCC3)CC2)c1,8.35
4,CCN(CC)CCSc1nnc2c3cc(C)ccc3n(Cc3ccccc3)c2n1,-81.6
5,CCOc1ccc(CCNC(=O)c2ccc(CS(=O)Cc3ccc(Cl)cc3)o2)cc1OCC (centres unmarked),2.83
6,C/C(=N/Oc1nc(C)cc(C)n1)c1ccc(F)cc1,8.49
7,CCOC(=O)Nc1cccc(OCC(=O)Nc2ccccc2OCC)c1,-5.15
8,COc1cc2c(cc1OC)C(COc1cccc(C(F)(F)F)c1)NCC2 (centres unmarked),3.04
9,O=C(Cc1cccc(NC(=O)C2CCCN(C(=O)C3CCC3)C2)c1)Nc1cccc(C(=O)N2CCCC2)c1 (centres unmarked),9.32
10,CN(C)c1nc2c(c(N)nn2-c2ccc(Cl)cc2)c(=O)o1,0.233
11,COc1ccc2[nH]c(=O)c(CN(C(=O)C3CCCO3)c3ccc(C)c(C)c3)cc2c1 (centres unmarked),-0.124
12,CSc1ccc(Cl)c(C(=O)NCCOc2ccccc2)c1,15
13,COc1cccc(C(=O)NCc2n[nH]c(=S)n2-c2cccc(C)c2)c1,16.4
14,CCOc1ccc(C2C([N+](=O)[O-])=C(C)N(C)C(=O)N2C)cc1OC (centres unmarked),5.29
15,COc1ccc2c(c1OC)C(=O)OC2N1C(=O)CC[C@H]1C(=O)Nc1ccc2c(c1)OCO2 (some centres unmarked),8.36
16,O=C(Nc1ccc(Cl)cc1)c1nc[nH]c1C(=O)NCc1ccccc1,10.2
17,Cc1cc(C(=O)N(CCC#N)Cc2cccs2)no1,13.7
18,CCCCc1c(C)c2ccc(OC)c(/C(C)=N\O)c2oc1=O,10.7
19,COc1ccc(/C=N/Nc2ncc(-c3ccccc3)cn2)c(OC)c1,20.3
20,CCOC(=O)N1CCC(NC(=O)CN(c2ccc(C(C)C)cc2)S(=O)(=O)c2c(C)nn(C)c2C)CC1,10.4

# Source: publication PMC4336329 (PLoS ONE, 2015)
